Measured values from patent publication US8415154B2, “Compositions and methods for producing adaptive regulatory T cells” (Trustees of Dartmouth College, priority 2007, dated 2013).
Several values for one entry are separate records, joined by “and”; a condition that tells them apart may be missing. Identical values can stand only once.

Test system: CD4+Foxp3− T cells
Test: TGFβ1-driven conversion of CD4+Foxp3− T cells to Foxp3+ (Foxp3/GFP) in vitro
Text: Cell Preparation. B cells and dendritic cells (DCs) were harvested from the spleens, and CD4+FoxP3− cells were isolated from spleens, peripheral and mesenteric lymph nodes. For B cell and T cells, single-cell suspensions were generated by crushing organs by sterile slides, and purified using by positive selection using either αCD4 or αCD19 labeled magnetic beads (Miltenyi Biotech, Auburn, Calif.). T cells were further purified by FACS-sorting of the CD4FoxP3/GFP− fraction, with purity always exceeding 99% (BD FACSARIA; BD Biosciences, San Jose, Calif.). For CD11c+ positive selection, spleens were harvested and incubated at 37° C. in RPMI with 50 μg/ml DNase I (Sigma, St. Louis, Mo.) and 250 μg/ml LIBERASE (Roche, Indianapolis, Ind.) for 1 hour and pushed through a 100 μM filter to create a single-cell suspension, and then purified using αCD11c magnetic beads (Miltenyi Biotech). Cell preps always exceeded 98% in purity. For small intestine lamina propria lymphocyte preparations, intestines were removed and Peyer's Patches were excised and used for further analysis. The intestines were washed with cold phosphate-buffered saline (PBS), split open, and cut into 1-cm pieces. After a 30-minute incubation in R0 to release the intestinal epithelial lymphocytes (IELs), intestines were vortexed, filtered using a 100 μM filter and washed extensively. Intestines were then digested for 2 hours using 50 μg/ml DNase I (Sigma) and 250 μg/ml LIBERASE (Roche), whereupon they were pushed through a 100 μM filter. The cellular suspension was centrifuged and suspended in 40% PERCOLL, and overlaid on 60% PERCOLL. The PERCOLL gradient was spun at 400 g at room temperature for 25 minutes with no brake, with the buffy (lymphocyte) coat removed for further use. As indicated, APCs were pulsed with ISQ peptide at 10 μg/ml for 1 hour in c-RPMI in six-well plates at a concentration of 10×10^6 cells/ml, and were then washed, counted, and used.
Cell Culture Reagents. […]

## CC1=C(/C=C/C(C)=C/C=C/C(C)=C/C(=O)O)C(C)(C)CCC1 [retinoic acid, all-trans retinoic acid]
Five days of culture, high, low and no co-stimulation
  total number of TGFβ1-dependent Foxp3+ cells: greatly enhanced the total number of TGFβ1-dependent Foxp3+ cells
Five days, plate-bound αCD3/αCD28 with TGFβ1, IL-2 and retinoic acid
  conversion rate of CD4+FoxP3− to CD4+FoxP3+ T cells: ~100% and > 90%
plate-bound αCD3 10 μg/ml, titrated αCD28, IL-2 and TGFβ1
  conversion in co-stimulation assay: enhanced conversion across all concentrations of αCD28
